From PubChem BioAssay AID463173 (ICCB-Longwood Screening Facility, Harvard Medical School, 2010) come the findings set out here.

Hit rate of the full screen: of about 52,000 compounds, about 1,700 (3.3%) were called active. Cut-off read from the data, not from the text of the source: active = survival mostly below about 52% (no sharp cut-off); inactive = mostly above about 56%. The list shows a part of the results.

The experiment has as its system Wild type. As to the kind of experiment: S. aureus survival, RN4220 and DeltatarO strains – OD600, teichoic acid synthesis inhibitors, primary screen (AID 463173). The following applies: S. aureus RN4220 wild type/DeltatarO growth, OD600, 18 h, active compounds read low, screened at 18.75 µg/mL (by protocol).
For the compound `CC(=O)N1c2ccc(S(=O)(=O)NCC3CCC(C(=O)Nc4cc(C)cc(C)c4)CC3)cc2CC1C` (configuration not stated), the survival is inactive: 124%.
The result for `CN(C)c1ccc(CN(Cc2ccco2)C(=O)c2ccc(F)cc2)cc1` reads inactive: 97%.
For `Cc1ccc(-n2cnc3ccccc3c2=O)cc1C` the value was inactive: 89%; for `O=C(NCCN1CCCCC1)c1ccc(Cn2c(SCc3ccc(F)cc3)nc3cccnc32)cc1`, inactive: 90%.
As for `COc1ccc(C(=O)Nc2nc3nc(C)c(Cl)c(=O)n3[nH]2)cc1`, the survival was inactive: 89%.
For `Cc1oc(-c2ccccc2Cl)nc1CS(=O)(=O)CC(=O)NC(C)CCc1ccccc1` (configuration not stated) the value was inactive: 76%.
For `COc1ccc(NC(=O)CC2C(=O)N(c3cccc(OC)c3)C(=O)N2Cc2cccnc2)cc1` (configuration not stated) the value was inactive: 75%; for `COc1ccc(OC)c(NC(=O)C(NS(=O)(=O)c2ccc3c(c2)CCCC(=O)N3)C(C)C)c1` (configuration not stated), inactive: 77%; for `Cc1ccc2nc(Cl)c3cc(C(=O)NC4CCCCC4)sc3c2c1`, inactive: 76%.
With `CN1CCc2nc3sc(C(=O)Nc4c(F)cccc4F)c(N)c3cc2C1`, the survival was inactive: 155%.
Turning to `CCOC(=O)c1ccc(NC(=O)c2nsc3ccccc23)cc1`, the survival is inactive: 79%.
For `CCOC(=O)c1cc(S(=O)(=O)N2CCN(c3cc(Cl)ccc3C)CC2)[nH]n1` the value was inactive: 120%.
With `Cc1ccc(-c2cnc(NCc3c(F)cccc3Cl)n2C)cc1`, the survival was active: -12%.
Regarding `CCOc1ccc(NC(=O)Cn2c(=O)c(CNc3ccc(OC)cc3)cc3ccc(OC)cc32)cc1`, the survival was inactive: 78%.
On to `Cc1nc(-c2cccc(S(=O)(=O)N3CCC(C(=O)NCc4ccccc4)CC3)c2)no1`, for which the survival was inactive: 120%.
For `Cc1cc(=O)n2nc(N3CCC(C(=O)NCc4ccccc4Cl)CC3)sc2n1` the value was inactive: 93%; for `CCc1ccc(OCC(=O)Nc2c(C(=O)c3ccccc3)oc3ccccc23)cc1`, inactive: 65%; for `CN(C)c1ccc(C(C(=O)NCC2CCCO2)N(C(=O)Cn2nnc3ccccc32)c2ccc3c(c2)OCO3)cc1` (configuration not stated), inactive: 113%.
The result for `CCCN(C(=O)Cn1cnc2sc(C)c(S(=O)(=O)N3CCN(c4ncccn4)CC3)c2c1=O)c1cccc(C)c1` reads inactive: 119%; that for `COC(=O)/C=C1/C(=O)N(C(C)=O)c2ccccc21`, inactive: 108%; that for `Cc1ccccc1NC(=O)CCc1c(C)nc2c(c1C)c(=O)n(C)c(=O)n2C`, inactive: 74%.
Regarding `COc1ccc(NS(=O)(=O)c2ccc3c(c2)oc(=O)n3C)cc1Cl`, the survival is inactive: 82%.
For `COc1cccc(NC(=O)c2nnn(Cc3cccc(C(F)(F)F)c3)c2N)c1` the value was inactive: 87%; for `COc1ccc(OC)c(S(=O)(=O)Nc2ccc3[nH]c(=O)[nH]c3c2)c1`, inactive: 89%.
The result for `Cc1cccc(CN2C(=O)c3ccccc3S(=O)(=O)c3ccc(C(=O)N4CCCC4)cc32)c1` reads inactive: 91%.
In the case of `Cc1ccc(S(=O)(=O)c2nnn3c2nc(N2CCCCC2)c2sccc23)cc1`, the survival is inactive: 115%.
The result for `CCN(CC)S(=O)(=O)c1ccc(NC(=O)[C@H](CCSC)N2Cc3ccccc3C2=O)cc1` reads inactive: 84%; that for `CCn1ccc2cc(S(=O)(=O)N3CCCN(C(=O)Nc4ccc(C)cc4)CC3)ccc21`, inactive: 45%.
On to `O=C(Nc1nnc(C2CCCCC2)s1)c1ccc2c(c1)OCO2`, for which the survival is inactive: 116%.
For `Cc1cccc(Cn2c(-c3cccs3)nc3ccccc32)c1` the value was active: -6%; for `CCOc1ccc(Cn2c(CNS(=O)(=O)c3cccs3)nc3cccnc32)cc1`, inactive: 124%; for `Cn1c(=O)c2c(nc(SCC(=O)Nc3ccc(F)cc3)n2Cc2ccc(Cl)cc2)n(C)c1=O`, inactive: 61%.
The result for `CN1CCN(Cc2cc3sccc3n2Cc2ccc(F)cc2)CC1` reads inactive: 119%; that for `Cc1cc(C)cc(N(C)S(=O)(=O)c2nnc(NC(=O)COc3ccc(Cl)cc3)s2)c1`, inactive: 80%.
The result for `CC(=O)c1cccc(NC(=O)CN2C(=O)CN(C)C(=O)c3ccccc32)c1` reads inactive: 79%; that for `CCc1nc(SCc2cc(=O)c3cc(F)ccc3[nH]2)n[nH]1`, inactive: 125%.
For `Cc1ccc(N2CCN(c3cc(C)nc4c(-c5ccc(Cl)cc5)c(C)nn34)CC2C)cc1` (configuration not stated), the survival was active: 14%.
For `NC(=O)Cn1c(=O)n(-c2ccc(F)c(Cl)c2)c(=O)c2sc3ccccc3c21` the value was inactive: 102%; for `CCOc1ccc(NC(=O)c2ccc3c(c2)c(C)c(C)n3Cc2ccc(F)cc2)cc1`, inactive: 73%.
For `Cc1ccc(NC(=O)Cn2ncc3c4ccccc4n(Cc4ccccc4)c3c2=O)cc1Cl` the value was inactive: 94%.
For the compound `Cc1ccc(C)c2sc(N3CCN(C(=O)c4ccco4)CC3)nc12`, the survival is inactive: 159%.
The result for `Cc1cn2c(=O)c(S(=O)(=O)NC(C)c3ccccc3)c(C)nc2s1` (configuration not stated) reads inactive: 82%; that for `CCC(=O)Nc1ccc(C(=O)CSc2ncc(C#N)c(N)n2)cc1OC`, inactive: 106%.
With `CN1CC(C(=O)O)CC1=O` (configuration not stated), the survival was inactive: 112%.
The result for `CCCCCn1c(Br)nc2c1c(=O)n(CC(N)=O)c(=O)n2C` reads inactive: 100%; that for `Cc1cccc(OCc2nnc(SC(C)C(=O)O)n2Cc2ccccc2)c1` (configuration not stated), inactive: 113%; that for `Cc1cc2nc(-c3cccc(NC(=O)COc4ccc(C(C)C)cc4)c3)oc2cc1C`, inactive: 52%.
The result for `COc1ccc(N2CCN(C(=O)c3c(C)oc4nc(C)nc(N5CCCC5)c34)CC2)cc1` reads inactive: 87%; that for `Cc1ccc(N(C)S(=O)(=O)c2c(-c3ccccc3)csc2C(=O)O)cc1`, inactive: 61%; that for `COc1ccc(-c2nc(C)c(CCNC(=O)c3cccs3)s2)cc1`, inactive: 55%.
The result for `Cc1ccccc1-c1nnc(SCC(=O)N2CCCc3ccccc32)o1` reads active: 15%; that for `CCN(CC)S(=O)(=O)c1cccc(C(=O)Nc2ccccc2)c1`, inactive: 114%.
Regarding `Cc1nc(-c2ccc(S(=O)(=O)Nc3ccc(OC(F)(F)F)cc3)cc2)co1`, the survival was inactive: 83%.
In the case of `Cc1ccc(NC(=O)N2CCC(CN3CCCCCC3)CC2)c(Cl)c1`, the survival was inactive: 56%.
The result for `CC(C)c1ccc(N2C(=O)CSC23C(=O)N(Cc2ccccc2F)c2ccccc23)cc1` (configuration not stated) reads inactive: 127%.
The result for `CCCNC(=O)c1c(NC(=O)c2ccccc2F)sc2c1CCCCC2` reads inactive: 82%; that for `O=c1cc(CSc2nnc(COc3ccccc3)o2)c2ccccc2[nH]1`, inactive: 116%.
